# Laboratory results as given in the supplement of paper PMC8728848.
# This is one part of the list.
# B1: MAA (Maackia amurensis), P0DKL3 (protein)
# chain: MATSNSKPTQVLLATFLTFFFLLLNNVNSSDELSFTINNFVPNEADLLFQGEASVSSTGVLQLTRVENGQPQKYSVGRALYAAPVRIWDNTTGSVASFSTSFTFVVKAPNPDITSDGLAFYLAPPDSQIPSGSVSKYLGLFNNSNSDSSNQIVAVELDTYFAHSYDPWDPNYRHIGIDVNGIESIKTVQWDWINGGVAFATITYLAPNKTLIASLVYPSNQTTFSVAASVDLKEILPEWVRVGFSAATGYPTEVETHDVLSWSFTSTLEANCDAATENNVHIARYTA
# Columns and labels:
# Test in all cases: glycan array binding signal (z-score within array); higher = stronger binding
# Conditions in all cases: glycan notation: IUPAC condensed, linker removed
# [1] = target: Neu5Ac(a2-3)Gal(b1-4)GlcNAc(b1-6)[Neu5Ac(a2-3)Gal(b1-3)]GalNAc
# Outline: (§1)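 Glycan array data were curated from 3228 arrays in the Consortium for Functional Glycomics database and kept only where the protein sequence was available. Glycan names were converted to IUPAC-condensed notation, and columns mapping to the same glycan were averaged. The binding signal is a within-array Z-score, averaged across arrays of the same protein sequence at different concentrations or buffers and across linkers. Negative Z-scores can be read as non-binding.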
# [2] = target: Neu5Ac(a2-3)Gal(b1-4)GlcNAc6S
# Outline: as §1
# [3] = target: Neu5Ac(a2-3)Gal(b1-4)[Fuc(a1-3)]GlcNAc
# Outline: as §1
# [4] = target: Neu5Ac(a2-3)Gal(b1-4)[Fuc(a1-3)]GlcNAc(b1-2)Man
# Outline: as §1
# [5] = target: Neu5Ac(a2-3)Gal(b1-4)[Fuc(a1-3)]GlcNAc(b1-3)Gal
# Outline: as §1
# [6] = target: Neu5Ac(a2-3)Gal(b1-4)[Fuc(a1-3)]GlcNAc(b1-3)Gal(b1-4)GlcNAc
# Outline: as §1
# [7] = target: Neu5Ac(a2-3)Gal(b1-4)[Fuc(a1-3)]GlcNAc(b1-3)Gal(b1-4)[Fuc(a1-3)]GlcNAc(b1-3)Gal(b1-4)[Fuc(a1-3)]GlcNAc
# Outline: as §1
# [8] = target: Neu5Ac(a2-3)Gal(b1-4)[Fuc(a1-3)]GlcNAc(b1-3)GalNAc
# Outline: as §1
# [9] = target: Neu5Ac(a2-3)Gal(b1-4)[Fuc(a1-3)]GlcNAc(b1-6)[Gal(b1-3)]GalNAc
# Outline: as §1
# [10] = target: Neu5Ac(a2-3)Gal(b1-4)[Fuc(a1-3)]GlcNAc(b1-6)[Neu5Ac(a2-3)Gal(b1-3)]GalNAc
# Outline: as §1
# [11] = target: Neu5Ac(a2-3)Gal(b1-4)[Fuc(a1-3)]GlcNAc6S
# Outline: as §1
# [12] = target: Neu5Ac(a2-3)Gal6S(b1-4)GlcNAc
# Outline: as §1
# [13] = target: Neu5Ac(a2-3)Gal6S(b1-4)[Fuc(a1-3)]GlcNAc
# Outline: as §1
# Neu5Ac(a2-3)GalNAc = target: Neu5Ac(a2-3)GalNAc
# Outline: as §1
# [14] = target: Neu5Ac(a2-3)GalNAc(b1-4)GlcNAc
# Outline: as §1
# [15] = target: Neu5Ac(a2-3)[GalNAc(b1-4)]Gal(b1-4)Glc
# Outline: as §1
# [16] = target: Neu5Ac(a2-3)[GalNAc(b1-4)]Gal(b1-4)GlcNAc
# Outline: as §1
# [17] = target: Neu5Ac(a2-3)[GalNAc(b1-4)]Gal(b1-4)GlcNAc(b1-3)GalNAc
# Outline: as §1
# [18] = target: Neu5Ac(a2-3)[Neu5Ac(a2-6)]GalNAc
# Outline: as §1
# Neu5Ac(a2-6)Gal = target: Neu5Ac(a2-6)Gal
# Outline: as §1
# [19] = target: Neu5Ac(a2-6)Gal(b1-3)GlcNAc(b1-3)[Gal(b1-4)GlcNAc(b1-6)]Gal(b1-4)Glc
# Outline: as §1
# Neu5Ac(a2-6)Gal(b1-4)Glc = target: Neu5Ac(a2-6)Gal(b1-4)Glc
# Outline: as §1
binder,measurement,setting,value
B1,glycan array binding signal (z-score),[1],-0.036
same,glycan array binding signal (z-score),[2],0.088
same,glycan array binding signal (z-score),[3],-0.212
same,glycan array binding signal (z-score),[4],-0.234
same,glycan array binding signal (z-score),[5],-0.256
same,glycan array binding signal (z-score),[6],-0.241
same,glycan array binding signal (z-score),[7],-0.157
same,glycan array binding signal (z-score),[8],-0.151
same,glycan array binding signal (z-score),[9],0.541
same,glycan array binding signal (z-score),[10],0.045
same,glycan array binding signal (z-score),[11],-0.236
same,glycan array binding signal (z-score),[12],-0.162
same,glycan array binding signal (z-score),[13],-0.251
same,glycan array binding signal (z-score),Neu5Ac(a2-3)GalNAc,-0.313
same,glycan array binding signal (z-score),[14],-0.276
same,glycan array binding signal (z-score),[15],-0.238
same,glycan array binding signal (z-score),[16],-0.239
same,glycan array binding signal (z-score),[17],0.081
same,glycan array binding signal (z-score),[18],-0.29
same,glycan array binding signal (z-score),Neu5Ac(a2-6)Gal,-0.205
same,glycan array binding signal (z-score),[19],-0.21
same,glycan array binding signal (z-score),Neu5Ac(a2-6)Gal(b1-4)Glc,-0.035
